Assay results as given in EPA's CvTdb concentration-time database.
This continues a long series; more values of the same kind are listed elsewhere.

Legend:
Rat [1] = assay: concentration in plasma after dosing; conditions: 10 min; dosed: 2-Methyltetrahydrofuran; 10 mg/kg; oral; Male; F344
Rat [2] = assay: concentration in plasma after dosing; conditions: 2 min; dosed: 2-Methyltetrahydrofuran; 10 mg/kg; oral; Male; F344
Rat [3] = assay: concentration in plasma after dosing; conditions: 1.5 h; dosed: 2-Methyltetrahydrofuran; 10 mg/kg; oral; Female; F344
Rat [4] = assay: concentration in brain after dosing; conditions: 0.75 h; dosed: 2-Methyltetrahydrofuran; 10 mg/kg; oral; Male; F344
Rat [5] = assay: concentration in brain after dosing; conditions: 1.5 h; dosed: 2-Methyltetrahydrofuran; 10 mg/kg; iv; Female; F344
Rat [6] = assay: concentration in brain after dosing; conditions: 20 min; dosed: 2-Methyltetrahydrofuran; 100 mg/kg; oral; Male; Harlan Sprague Dawley
Rat [7] = assay: concentration in brain after dosing; conditions: 10 min; dosed: 2-Methyltetrahydrofuran; 400 mg/kg; oral; Female; Harlan Sprague Dawley
Rat [8] = assay: concentration in plasma after dosing; conditions: 2 h; dosed: 2-Methyltetrahydrofuran; 10 mg/kg; oral; Female; F344
Rat [9] = assay: concentration in brain after dosing; conditions: 0.75 h; dosed: 2-Methyltetrahydrofuran; 10 mg/kg; oral; Male; F344; remark: listed apart in the source
Rat [10] = assay: concentration in plasma after dosing; conditions: 1.5 h; dosed: 2-Methyltetrahydrofuran; 30 mg/kg; oral; Male; F344
Rat [11] = assay: concentration in plasma after dosing; conditions: 8 min; dosed: 2-Methyltetrahydrofuran; 30 mg/kg; oral; Female; F344
Rat [12] = assay: concentration in plasma after dosing; conditions: 8 h; dosed: 2-Methyltetrahydrofuran; 100 mg/kg; oral; Female; Harlan Sprague Dawley
Rat [13] = assay: concentration in plasma after dosing; conditions: 2.5 h; dosed: 2-Methyltetrahydrofuran; 10 mg/kg; oral; Male; F344
Rat [14] = assay: concentration in brain after dosing; conditions: 4 min; dosed: 2-Methyltetrahydrofuran; 30 mg/kg; oral; Male; F344
Rat [15] = assay: concentration in brain after dosing; conditions: 1.5 h; dosed: 2-Methyltetrahydrofuran; 100 mg/kg; oral; Female; Harlan Sprague Dawley
Rat [16] = assay: concentration in plasma after dosing; conditions: 1.5 h; dosed: 2-Methyltetrahydrofuran; 10 mg/kg; iv; Male; F344
Rat [17] = assay: concentration in plasma after dosing; conditions: 0.5 h; dosed: 2-Methyltetrahydrofuran; 10 mg/kg; iv; Male; F344
Rat [18] = assay: concentration in brain after dosing; conditions: 2 h; dosed: 2-Methyltetrahydrofuran; 10 mg/kg; oral; Male; F344
Rat [19] = assay: concentration in brain after dosing; conditions: 1 h; dosed: 2-Methyltetrahydrofuran; 10 mg/kg; oral; Female; F344
Rat [20] = assay: concentration in plasma after dosing; conditions: 10 min; dosed: 2-Methyltetrahydrofuran; 10 mg/kg; oral; Female; F344
Rat [21] = assay: concentration in plasma after dosing; conditions: 2 h; dosed: 2-Methyltetrahydrofuran; 30 mg/kg; oral; Female; F344
Rat [22] = assay: concentration in brain after dosing; conditions: 10 min; dosed: 2-Methyltetrahydrofuran; 100 mg/kg; oral; Male; Harlan Sprague Dawley
Rat [23] = assay: concentration in plasma after dosing; conditions: 1.5 h; dosed: 2-Methyltetrahydrofuran; 10 mg/kg; iv; Male; F344; remark: listed apart in the source
Rat [24] = assay: concentration in plasma after dosing; conditions: dosed: Bromochloroacetic acid, 100 mg/kg, oral, Male, F344
Rat [25] = assay: concentration in plasma after dosing; conditions: dosed: Bromochloroacetic acid, 40 mg/kg, oral, Female, F344
Rat [26] = assay: concentration in plasma after dosing; conditions: 0.5 h; dosed: Fluorotelomer alcohol 8+2; 24 mg/kg; oral; Male; Harlan Sprague Dawley
Rat [27] = assay: concentration in plasma after dosing; conditions: dosed: Fluorotelomer alcohol 8+2, 40 mg/kg, oral, Female, Harlan Sprague Dawley
Rat [28] = assay: concentration in plasma after dosing; conditions: dosed: Formamide, 90 mg/kg, iv, Male, Harlan Sprague Dawley
Rat [29] = assay: concentration in plasma after dosing; conditions: 0.5 h; dosed: Formamide; 30 mg/kg; iv; Female; F344
Rat [30] = assay: concentration in plasma after dosing; conditions: dosed: Formamide, 36 mg/kg, oral, Female, Harlan Sprague Dawley
Rat [31] = assay: concentration in plasma after dosing; conditions: dosed: Formamide, 600 mg/kg, oral, Female, Harlan Sprague Dawley
Rat [32] = assay: concentration in plasma after dosing; conditions: 40 min; dosed: Pyridine; 50 mg/kg; oral; Male; Harlan Sprague Dawley
Rat [33] = assay: concentration in plasma after dosing; conditions: 1 h; dosed: Pyridine; 5 mg/kg; iv; Male; F344
Rat [34] = assay: concentration in plasma after dosing; conditions: 1 h; dosed: Pyridine; 50 mg/kg; oral; Female; F344
Rat [35] = assay: concentration in plasma after dosing; conditions: 10 min; dosed: Pyridine; 200 mg/kg; oral; Female; Harlan Sprague Dawley
Rat [36] = assay: concentration in plasma after dosing; conditions: 2 min; dosed: Pyridine; 10 mg/kg; iv; Female; F344
Rat [37] = assay: concentration in plasma after dosing; conditions: 2 h; dosed: Pyridine; 10 mg/kg; iv; Male; Harlan Sprague Dawley
Rat [38] = assay: concentration in plasma after dosing; conditions: 2 h; dosed: Pyridine; 5 mg/kg; iv; Female; F344
Rat [39] = assay: concentration in plasma after dosing; conditions: 6 h; dosed: Pyridine; 50 mg/kg; oral; Female; Harlan Sprague Dawley

CC1CCCO1 (stereo not given) [2-Methyltetrahydrofuran]
Conditions	concentration in brain [µg/g]	concentration in plasma [ng/mL]
Rat [1]	–	4300
Rat [2]	–	220
Rat [3]	–	234
Rat [4]	1.41	–
Rat [5]	0.264	–
Rat [6]	35.8	–
Rat [7]	238	–
Rat [8]	–	222
Rat [9]	0.809	–
Rat [10]	–	9950
Rat [11]	–	14600
Rat [12]	–	91.9
Rat [13]	–	68
Rat [14]	6.65	–
Rat [15]	72.6	–
Rat [16]	–	941
Rat [17]	–	4860
Rat [18]	0.0825	–
Rat [19]	1.07	–
Rat [20]	–	4480
Rat [21]	–	3370
Rat [22]	45.6	–
Rat [23]	–	705

O=C(O)C(Cl)Br (stereo not given) [Bromochloroacetic acid]
concentration in plasma [ng/mL]
Conditions	3 h	4 h	5 min	6 h
Rat [24]	11200	–	6470	–
Rat [25]	–	2610	–	590

OCCC(F)(F)C(F)(F)C(F)(F)C(F)(F)C(F)(F)C(F)(F)C(F)(F)C(F)(F)F [Fluorotelomer alcohol 8+2]
Conditions	concentration in plasma [ng/mL]
Rat [26]	430

Rat [27]
Conditions	concentration in plasma [ng/mL]
3 h	166
5 min	1.67

NC=O [Formamide]
Conditions	concentration in plasma [ng/mL]
Rat [28], 1 h	181000
Rat [28], 3 h	135000
Rat [30], 2 h	52300
Rat [30], 5 min	11300
Rat [31], 0.5 h	735000
Rat [31], 48 h	71600

Conditions	concentration in plasma [ng/mL]
Rat [29]	31700

c1ccncc1 [Pyridine]
Conditions	concentration in plasma [ng/mL]
Rat [32]	35300
Rat [33]	4120
Rat [34]	23700
Rat [35]	102000
Rat [36]	6320
Rat [37]	2210
Rat [38]	2460
Rat [39]	16200
